pIC50: −log10 of the molar value. By IC50 is meant the dose at which the fit gives 50% viability; where the fit passes the top or lowest dose, that dose stands as a limit. The AUC spans the tested range (256-fold, ending at the top dose) of the same fit; values near 1 show little effect. For part of these data: An inferred top dose was calculated from the reported fits. For part of these data: Where an entry number is given, a second screen of the drug exists; the two often differ.
Experiments:
Experiment in all cases: Viability of human cancer cell lines after 72 h of drug (GDSC screen)
Vinblastine = compound: CC[C@]1(O)C[C@@H]2CN(CCc3c([nH]c4ccccc34)[C@@](C(=O)OC)(c3cc4c(cc3OC)N(C)[C@H]3[C@@](O)(C(=O)OC)[C@H](OC(C)=O)[C@]5(CC)C=CCN6CC[C@]43[C@@H]65)C2)C1 [Vinblastine]; details: top dose 0.1 µM; top dose inferred
Protocol: (§1)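 Human cancer cell lines in 384-well plates, medium with 10% serum, drug for 72 h over a 256-fold dose range (nine 2-fold or five 4-fold steps up to the top dose). Adherent lines were fixed and stained with the nucleic acid dye Syto60, suspension lines read with resazurin; signal relative to control wells, capped at 0 and 100%. One two-parameter sigmoid per drug and line, fitted in a mixed model over all curves with the slope shared within a line.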

Afatinib = compound: CN(C)C/C=C/C(=O)Nc1cc2c(Nc3ccc(F)c(Cl)c3)ncnc2cc1O[C@H]1CCOC1 [Afatinib]
Protocol: as §1

SNX-2112 = compound: CC1(C)CC(=O)c2c(C(F)(F)F)nn(-c3ccc(C(N)=O)c(N[C@H]4CC[C@H](O)CC4)c3)c2C1 [SNX-2112]; details: top dose 2.56 µM
Protocol: as §1

XMD13-2 = compound: O=C(NC1CC1)c1cccc(-c2ccc3c(NC(=O)C4CC4)n[nH]c3c2)c1 [XMD13-2]; details: top dose 10.24 µM; top dose inferred
Protocol: as §1

PF-562271 = compound: CN(c1ncccc1CNc1nc(Nc2ccc3c(c2)CC(=O)N3)ncc1C(F)(F)F)S(C)(=O)=O [PF-562271]; details: top dose 2.56 µM; top dose inferred
Protocol: as §1

[1] = top dose 0.5 µM, screen: GDSC drug entry 1032
[2] = top dose 10 µM, screen: GDSC drug entry 1377, top dose inferred

Cell Line | AUC (Vinblastine) | pIC50 (Vinblastine) | AUC (Afatinib; [1]) | pIC50 (Afatinib; [1]) | AUC (Afatinib; [2]) | pIC50 (Afatinib; [2]) | AUC (SNX-2112) | pIC50 (SNX-2112) | AUC (XMD13-2) | pIC50 (XMD13-2) | AUC (PF-562271) | pIC50 (PF-562271)
MEL-HO (melanoma, adherent) | 0.581 | 7.98 | 0.984 | < 6.30 | 0.983 | < 5.00 | – | – | – | – | – | –
SNU-81 (large intestine, adherent) | 0.816 | 7.09 | 0.981 | < 6.30 | 0.977 | < 5.00 | 0.953 | < 5.59 | 0.913 | < 4.99 | – | –
IGROV-1 (ovary, adherent) | 0.786 | 7.17 | 0.815 | 6.34 | 0.832 | < 5.00 | – | – | – | – | – | –
SW1271 (small cell lung carcinoma, adherent) | 0.703 | 7.59 | 0.984 | < 6.30 | 0.982 | < 5.00 | 0.52 | 6.74 | 0.944 | < 4.99 | – | –
KNS-62 (lung squamous cell carcinoma, adherent) | 0.529 | 8.11 | 0.948 | < 6.30 | 0.821 | 5.01 | – | – | – | – | – | –
SK-GT-2 (stomach, adherent) | 0.552 | 8.06 | 0.317 | 8.03 | 0.131 | > 7.41 | – | – | – | – | – | –
MC-IXC (neuroblastoma, adherent) | 0.429 | 8.38 | 0.989 | < 6.30 | 0.996 | < 5.00 | 0.318 | 7.24 | 0.933 | 5.04 | – | –
CL-40 (large intestine, adherent) | 0.903 | < 7.00 | 0.776 | 6.44 | 0.817 | < 5.00 | – | – | – | – | – | –
OC-314 (ovary, adherent) | 0.549 | 8.08 | 0.958 | < 6.30 | 0.932 | < 5.00 | 0.812 | 5.94 | 0.914 | < 4.99 | – | –
FLO-1 (oesophagus, adherent) | 0.506 | 8.19 | 0.929 | < 6.30 | 0.895 | < 5.00 | 0.662 | 6.25 | 0.925 | < 4.99 | – | –
NCC010 (kidney, adherent) | 0.864 | 7.01 | 0.979 | < 6.30 | 0.919 | < 5.00 | – | – | – | – | – | –
SNU-407 (large intestine, adherent) | 0.719 | 7.53 | 0.967 | < 6.30 | 0.946 | < 5.00 | 0.513 | 6.76 | 0.903 | < 4.99 | – | –
JHOS-4 (ovary, adherent) | 0.701 | 7.52 | 0.857 | < 6.30 | 0.713 | 5.48 | – | – | – | – | – | –
KATOIII (stomach, semi-adherent) | 0.708 | 7.64 | 0.99 | < 6.30 | 0.981 | < 5.00 | – | – | – | – | – | –
SUP-B8 (B-cell leukaemia, suspension) | 0.542 | 8.09 | 0.989 | < 6.30 | 0.979 | < 5.00 | – | – | – | – | – | –
HuH-7 (liver, adherent) | 0.83 | 7.21 | 0.982 | < 6.30 | 0.986 | < 5.00 | 0.895 | < 5.59 | 0.972 | < 4.99 | – | –
OE21 (oesophagus, adherent) | 0.315 | 8.81 | 0.438 | 7.70 | 0.456 | 6.34 | 0.789 | 5.79 | 0.969 | < 4.99 | – | –
EFM-19 (breast, adherent) | 0.402 | 8.53 | 0.973 | < 6.30 | 0.939 | < 5.00 | 0.932 | < 5.59 | 0.956 | < 4.99 | – | –
EMC-BAC-2 (lung adenocarcinoma, adherent) | 0.414 | 8.46 | 0.914 | < 6.30 | 0.933 | < 5.00 | 0.467 | 6.89 | 0.829 | 5.10 | – | –
U-266 (myeloma, semi-adherent) | 0.519 | 8.15 | 0.963 | < 6.30 | 0.957 | < 5.00 | – | – | – | – | – | –
OV-56 (ovary, adherent) | 0.699 | 7.66 | 0.989 | < 6.30 | 0.969 | < 5.00 | 0.793 | 5.95 | 0.955 | < 4.99 | – | –
NCI-H1105 (small cell lung carcinoma, suspension) | 0.549 | 8.08 | 0.992 | < 6.30 | 0.985 | < 5.00 | – | – | – | – | – | –
NCI-H835 (lung carcinoid, suspension) | 0.89 | < 7.00 | 0.989 | < 6.30 | 0.972 | < 5.00 | – | – | – | – | – | –
NCI-H508 (large intestine, semi-adherent) | 0.866 | < 7.00 | 0.613 | 7.10 | 0.691 | 5.51 | – | – | – | – | – | –
CRO-AP2 (B-cell lymphoma, suspension) | 0.203 | 9.01 | 0.959 | < 6.30 | 0.959 | < 5.00 | – | – | – | – | – | –
PWR-1E (prostate, adherent) | 0.434 | 8.38 | 0.987 | < 6.30 | 0.98 | < 5.00 | – | – | – | – | – | –

Cell Line | AUC (Vinblastine) | pIC50 (Vinblastine) | AUC (Afatinib; [1]) | pIC50 (Afatinib; [1]) | AUC (Afatinib; [2]) | pIC50 (Afatinib; [2]) | AUC (SNX-2112) | pIC50 (SNX-2112) | AUC (XMD13-2) | pIC50 (XMD13-2) | AUC (PF-562271) | pIC50 (PF-562271)
ZR-75-30 (breast, adherent) | 0.823 | < 7.00 | 0.698 | 6.82 | 0.522 | 6.13 | – | – | – | – | – | –
NCI-H929 (myeloma, suspension) | 0.551 | 8.07 | 0.973 | < 6.30 | 0.962 | < 5.00 | – | – | – | – | – | –
OCI-LY7 (B-cell lymphoma, suspension) | 0.426 | 8.38 | 0.971 | < 6.30 | – | – | – | – | – | – | – | –
MOLT-16 (T-cell lymphoblastic leukaemia, suspension) | 0.262 | 8.81 | 0.96 | < 6.30 | 0.937 | < 5.00 | – | – | – | – | – | –
EW-22 (Ewing sarcoma, adherent) | 0.722 | 7.59 | 0.986 | < 6.30 | 0.945 | < 5.00 | – | – | – | – | – | –
NCI-H1341 (small cell lung carcinoma, suspension) | 0.899 | 7.03 | 0.989 | < 6.30 | 0.977 | < 5.00 | – | – | – | – | – | –
JEKO-1 (B-cell lymphoma, suspension) | 0.312 | 8.72 | 0.976 | < 6.30 | 0.981 | < 5.00 | – | – | – | – | – | –
VMRC-LCD (lung adenocarcinoma, adherent) | 0.464 | 8.29 | 0.993 | < 6.30 | 0.992 | < 5.00 | – | – | – | – | – | –
MHH-CALL-2 (B-cell leukaemia, suspension) | 0.66 | 7.82 | 0.997 | < 6.30 | 0.997 | < 5.00 | – | – | – | – | – | –
NCI-H146 (small cell lung carcinoma, suspension) | 0.94 | < 7.00 | 0.994 | < 6.30 | 0.986 | < 5.00 | – | – | – | – | – | –
CML-T1 (chronic myeloid leukaemia, suspension) | 0.403 | 8.45 | 0.983 | < 6.30 | 0.951 | < 5.00 | – | – | – | – | – | –
TC-YIK (cervix, suspension) | 0.513 | 8.17 | 0.958 | < 6.30 | 0.929 | < 5.00 | – | – | – | – | – | –
MKN7 (stomach, adherent) | 0.794 | 7.19 | 0.867 | < 6.30 | 0.874 | < 5.00 | – | – | – | – | – | –
LU-65 (large cell lung carcinoma, suspension) | 0.987 | < 7.00 | – | – | – | – | 0.437 | 6.98 | 0.948 | < 4.99 | – | –
SK-MEL-31 (melanoma, adherent) | 0.771 | 7.31 | 0.983 | < 6.30 | 0.964 | < 5.00 | – | – | – | – | – | –
MOLM-16 (acute myeloid leukaemia, suspension) | 0.431 | 8.38 | 0.897 | 6.31 | 0.925 | < 5.00 | – | – | – | – | – | –
CL-34 (large intestine, adherent) | 0.813 | 7.22 | 0.986 | < 6.30 | 0.985 | < 5.00 | – | – | – | – | – | –
KARPAS-1106P (B-cell lymphoma, suspension) | 0.431 | 8.38 | 0.988 | < 6.30 | 0.993 | < 5.00 | – | – | – | – | – | –
RCH-ACV (B-cell leukaemia, suspension) | 0.472 | 8.27 | 0.979 | < 6.30 | 0.977 | < 5.00 | – | – | – | – | – | –
RH-18 (rhabdomyosarcoma, adherent) | 0.899 | < 7.00 | 0.97 | < 6.30 | 0.962 | < 5.00 | – | – | – | – | – | –
DIFI (large intestine, adherent) | 0.656 | 7.76 | 0.23 | 8.31 | 0.146 | 7.33 | – | – | – | – | – | –
HCC-366 (non-small cell lung carcinoma, adherent) | 0.728 | 7.54 | 0.987 | < 6.30 | 0.981 | < 5.00 | – | – | – | – | – | –
MZ7-mel (melanoma, adherent) | – | – | – | – | 0.985 | < 5.00 | 0.572 | 6.60 | 0.973 | < 4.99 | 0.946 | < 5.59
NB7 (neuroblastoma, adherent) | – | – | – | – | 0.873 | < 5.00 | 0.625 | 6.44 | 0.931 | < 4.99 | 0.878 | < 5.59
NCI-N87 (stomach, adherent) | 0.502 | 8.20 | – | – | – | – | – | – | – | – | – | –
BALL-1 (B-cell leukaemia, suspension) | 0.509 | 8.18 | 0.996 | < 6.30 | 0.992 | < 5.00 | – | – | – | – | – | –

Reference: the supplement of paper PMC4967469
